Results reported in the supplement of paper PMC11417369.
± gives the standard deviation of the averaged measurements. This is one part of the list.

The sequences below were run on PfAP2-I AP2 domain 3 (GST-tagged) (assay: gcPBM binding intensity (ln(normalized median fluorescence intensity)); higher = stronger DNA binding).
Method in brief: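 In this array assay, P. falciparum DNA-binding domains with a GST tag, expressed in E. coli, were applied for 1 h to primer-extended double-stranded 36-bp intergenic genomic probes and negative controls on an Agilent 4 × 180k array. Bound protein was visualised with Alexa488 anti-GST antibody at 488 nm. Binding intensity is the highest Masliner-normalised natural-log median intensity across replicate spots of either probe orientation.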
For “ACATTCAATCTACTGTGTACATATTAAACTTTGAAA [XGTACX_site2913]”, the “gcPBM binding intensity (ln)” value was 8.18 ± 0.68.
“AAAAAATATATATCACGTGGTAATATATATATATAT [XGTACX_negctrl_site252]” was tested, and the “gcPBM binding intensity (ln)” value was 9.13 ± 0.45.
“AAATTAAATCCGCACGCACACACACCGATTAATAAA [CACACA_site9321]” was tested, and the “gcPBM binding intensity (ln)” value was 8.73 ± 0.4.
“AATATATAAATAGATACACACATACATACATACATA [CACACA_site4301]” was tested, and the “gcPBM binding intensity (ln)” value was 8.07 ± 0.49.
In the case of “TACATCTGTATATAAACACACAACAAAAATGCTTAC [CACACA_site3814]”, the “gcPBM binding intensity (ln)” value is reported as 7.69 ± 0.75.
For “TAACATTACTCTTAACTCTTTTGGATACCAACTTAT [XGTACX_negctrl_site82]”, the “gcPBM binding intensity (ln)” value was 7.78 ± 0.54.
With “ATAATAATATATACATGTACATATATATATATATAT [XGTACX_site3455]” the “gcPBM binding intensity (ln)” value was 9.12 ± 0.39.
In the case of “AAATATTTATAAATTGCACACAAATAATAACATTAT [CACACA_site8737]”, the “gcPBM binding intensity (ln)” value is reported as 8.47 ± 0.099.
“AAATAAAAAGTAAAGCGTACAAATGATCAAATAATA [XGTACX_site7898]” was tested, and the “gcPBM binding intensity (ln)” value was 7.91 ± 0.59.
“TAATCAACAAAATCTACACACTAAAATGAAATATAA [CACACA_site3749]” was tested, and the “gcPBM binding intensity (ln)” value was 7.58 ± 0.72.
In the case of “TATAAATAGATATATACACACTTGTGCAGAATATTA [CACACA_site7112]”, the “gcPBM binding intensity (ln)” value is reported as 9.37 ± 0.099.
In the case of “AGAAGTGTAAAAGTTACACACACAAACTTGTCATTT [CACACA_site4613]”, the “gcPBM binding intensity (ln)” value is reported as 7.66 ± 0.61.
“CCCAGGTGCTCGTAACGTACTTACATCAAATATTAT [XGTACX_site4617]” was tested, and the “gcPBM binding intensity (ln)” value was 8.71 ± 0.23.
“AGGCGTGAAATATACGTACACACATTATTTATATTT [CACACA_site2558]” was tested, and the “gcPBM binding intensity (ln)” value was 7.99 ± 0.3.
“CATATTAAAAATACATGTACATATATATTTAATATA [XGTACX_site8580]” was tested, and the “gcPBM binding intensity (ln)” value was 7.74 ± 0.26.
With “AACCTCAAATACACAAGTACGTATAATAAGGAACAA [XGTACX_site4304]” the “gcPBM binding intensity (ln)” value was 7.87 ± 0.43.
In the case of “GTTAAAATAATATTATGTACATATATATAAAAATAT [XGTACX_site8512]”, the “gcPBM binding intensity (ln)” value is reported as 7.96 ± 0.34.
In the case of “GTTTGTAAATATTTTACACACATATTTATTTATATA [CACACA_site6632]”, the “gcPBM binding intensity (ln)” value is reported as 7.61 ± 0.66.
With “TATAAATATGTGTTTACACACAATAATGAATTAAAA [CACACA_site6555]” the “gcPBM binding intensity (ln)” value was 7.49 ± 0.5.
With “ATGGAAAAATGTATATATAAAATAAATATATTATAT [CACACA_negctrl_site1712]” the “gcPBM binding intensity (ln)” value was 7.49 ± 0.63.
With “AATATACACATTGTGAAATAACAAAAAAGGCAAAAA [CACACA_negctrl_site1014]” the “gcPBM binding intensity (ln)” value was 7.87 ± 0.77.
“CCTATTTATATATACACACACATATATAAATAAATA [CACACA_site2991]” was tested, and the “gcPBM binding intensity (ln)” value was 8.09 ± 0.32.
“AATAAAAAGATATTCTCCTTGTTCCTTTTTTTTAAA [CACACA_negctrl_site1147]” was tested, and the “gcPBM binding intensity (ln)” value was 7.83 ± 0.64.
In the case of “TATATATATGTATGATGTACATATATGCATATATAT [XGTACX_site3399]”, the “gcPBM binding intensity (ln)” value is reported as 8.14 ± 0.8.
For “TTAATTAAATATTATACACACAAAAAAATAATTTTA [CACACA_site96]”, the “gcPBM binding intensity (ln)” value was 7.57 ± 0.6.
For “ATATATATTCATAATACACACATTCTGTAGCATTAT [CACACA_site2067]”, the “gcPBM binding intensity (ln)” value was 8.01 ± 0.69.
“ATAGTATCTGGTAGCTGTACGAATGGTAGAGAGTAG [XGTACX_site2548]” was tested, and the “gcPBM binding intensity (ln)” value was 8.62 ± 0.45.
In the case of “ATATATATATTAAAGGTGCACAAATAAATATATACA [GTGCAC_site9532]”, the “gcPBM binding intensity (ln)” value is reported as 11.54 ± 0.035.
For “ATATTTTTTTTCTTCACACACATGAATTATATATAA [CACACA_site3216]”, the “gcPBM binding intensity (ln)” value was 8.27 ± 0.49.
With “AATCTATATTGACACACACACAAAAAAAAAAAAAAA [CACACA_site6739]” the “gcPBM binding intensity (ln)” value was 7.95 ± 0.43.
For “ATTTTAACCAATTATTGTACTTGGTTATTCTTTTTT [XGTACX_site7453]”, the “gcPBM binding intensity (ln)” value was 7.46 ± 0.66.
“AAATTATTGAAATACGCATGTGTTTTTTTTTTTTTT [TGCATGCA_site391]” was tested, and the “gcPBM binding intensity (ln)” value was 8.05 ± 0.47.
With “AATATTACGTCTGGACGTACAAATCTTTTTCGTGTC [XGTACX_site6644]” the “gcPBM binding intensity (ln)” value was 7.74 ± 0.59.
“GAAATATTTTGTTGTGCATGCGACATTAAATAAAAA [TGCATGCA_site331]” was tested, and the “gcPBM binding intensity (ln)” value was 8.22 ± 0.68.
“TTTTACTAGATATATACACACATTATACCTATAGAT [CACACA_site7530]” was tested, and the “gcPBM binding intensity (ln)” value was 7.81 ± 0.72.
With “ACATTTTTTTTTTTTTTTTTTTTCTTACATCATGCA [CACACA_negctrl_site1413]” the “gcPBM binding intensity (ln)” value was 8 ± 0.58.
In the case of “ATATAAAGGTTTATTAGTACACATTAGAATACTTTT [XGTACX_site4492]”, the “gcPBM binding intensity (ln)” value is reported as 7.75 ± 0.47.
For “CATATTAGGACAAAGTGTACATATATATATATATAT [XGTACX_site1172]”, the “gcPBM binding intensity (ln)” value was 9.53 ± 0.69.
With “TTATGAAAAAAATACTGTACACAATATGACGAAAGT [XGTACX_site2283]” the “gcPBM binding intensity (ln)” value was 8.46 ± 0.42.
In the case of “TTTTAAATAAATCATGCATGCACATATAATTATATT [TGCATGCA_site151]”, the “gcPBM binding intensity (ln)” value is reported as 8.81 ± 0.72.
In the case of “TATACGCATATTTTTACACACATATTTTTTCATATA [CACACA_site2546]”, the “gcPBM binding intensity (ln)” value is reported as 8.2 ± 0.28.
In the case of “TATCTCATTTGGAATTGTACTAACAGATACTTGTTT [XGTACX_site2672]”, the “gcPBM binding intensity (ln)” value is reported as 7.54 ± 0.54.
For “TATATATAATATATATGTACATATGTATAATATTTA [XGTACX_site4400]”, the “gcPBM binding intensity (ln)” value was 7.67 ± 0.18.
“CAAAAGAAGGTAAACACACACACACCCATACAAAAA [CACACA_site3765]” was tested, and the “gcPBM binding intensity (ln)” value was 8.1 ± 0.11.
“ATTATTCGTTTTAAATGTACTCATATAAACGATAAA [XGTACX_site7866]” was tested, and the “gcPBM binding intensity (ln)” value was 7.8 ± 0.16.
In the case of “ATATTTTTTTTCATTTGTACACATAAAATTATATAG [XGTACX_site8260]”, the “gcPBM binding intensity (ln)” value is reported as 8.19 ± 0.46.
With “CATATTTACATTAAGTGTACTTATGAATATATATAC [XGTACX_site7962]” the “gcPBM binding intensity (ln)” value was 7.8 ± 0.14.
“ATAATATTTTATAATTGTACTTTTTATAAATATAAA [XGTACX_site1940]” was tested, and the “gcPBM binding intensity (ln)” value was 7.64 ± 0.21.
With “TAAATAAATCCACATACACACACGACGCTAGTATAT [CACACA_site1060]” the “gcPBM binding intensity (ln)” value was 7.63 ± 0.35.
“GATAGATAATATTTTAGTACATAAACAATTAAATAT [XGTACX_site4125]” was tested, and the “gcPBM binding intensity (ln)” value was 7.91 ± 0.44.
In the case of “AATATTTTATTTTTTCTCATTAAAAATTTTTTTTTT [CACACA_negctrl_site364]”, the “gcPBM binding intensity (ln)” value is reported as 7.46 ± 0.73.
“TTATATTTTTTTTGTAGTACATTATAGAATACACAC [XGTACX_site969]” was tested, and the “gcPBM binding intensity (ln)” value was 8.39 ± 0.4.
“TTAATAACAAAATAAACACACATATATAAATACACA [CACACA_site6849]” was tested, and the “gcPBM binding intensity (ln)” value was 7.91 ± 0.16.
In the case of “TTTATTAAAACAAAATGTACACACATATAATTTAAT [XGTACX_site1637]”, the “gcPBM binding intensity (ln)” value is reported as 7.65 ± 0.52.
For “TAAATTCTGTTTAAAAGTACAAATAATATTGTGCCT [XGTACX_site7805]”, the “gcPBM binding intensity (ln)” value was 7.55 ± 0.4.
“AAATGTTGAAATGATACACACATATATATATATATA [CACACA_site2517]” was tested, and the “gcPBM binding intensity (ln)” value was 9.35 ± 0.54.
